# Experimental data as given in PubChem BioAssay AID1508642 (National Center for Advancing Translational Sciences (NCATS), 2021).
# In all, about 43,000 compounds went through this assay and about 200 (0.47%) were called active. About 12% were inconclusive and are not listed. The call rests on the fitted dose curve; in most records, active means well fitted cell-killing curve with a large enough effect; inconclusive means small, poorly fitted or top-dose-only effect, or effect the other way; inactive means flat fitted curve, though single readings scatter. This is one part of the list.
# Experiment: Cell viability qHTS assay in S16 Pmp22-F2sN cells; further: nearly all actives have a fitted effect of over 65% in size
# Details: S16 Pmp22-F2sN Schwann cells viability, CellTiter-Glo, 24 h; series mostly up to 57.5 µM; activity change, negative = cytotoxicity: at the top concentration
# How it was run: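 Viability was measured by CellTiter-Glo luminescence (15 min, room temperature). This followed 24 h at 37 °C of compound exposure (23 nL pin transfer) in S16 Pmp22-F2sN Schwann cells, 500-1,000 per well.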
# On the % scale 0 is the no-effect control and ±100 the full control effect.
row,SMILES,"activity change, negative = cytotoxicity"
1,COc1ccc(-c2n[nH]c3c2C(c2ccc(Cl)cc2Cl)NC3=O)cc1 (stereo unspecified),inactive: -26.4%
2,CCN(CCCNC(=O)c1ccc(Sc2ccc(C)cc2)c(NC(C)=O)c1)c1cccc(C)c1,inactive: -23.9%
3,COc1ccc(-n2c(=O)c3c(c4cc(OC)ccc4n3C)n(CC(=O)NCC3CCCO3)c2=O)cc1 (stereo unspecified),inactive: 10.2%
4,COc1cc(Cl)c(NC(=O)c2cc(S(=O)(=O)N3CCOCC3)cn2C)c(OC)c1,inactive: -10.4%
5,CCOC(=O)c1ccc(-c2ccc(/C=C(\C#N)C(=O)Nc3c(C)cccc3Cl)o2)cc1,inactive: 15.3%
6,CCc1nn2c(-c3ccco3)ccnc2c1-c1ccc(F)cc1,inactive: 13.8%
7,C#CCSc1nc2sc3c(c2c(=O)n1-c1cccc(OC)c1)CCN(C(C)=O)C3,inactive: -0.682%
8,Cc1ccccc1Nc1c(-c2cccc(O)c2)nc2ccc(Br)cn12,inactive: -13%
9,O=S(=O)(NCc1ccc(F)cc1)c1ccc2[nH]c3c(c2c1)CCCCC3,inactive: -0.983%
10,CCOC(=O)c1nc(Nc2ccc(OC)cc2)c2ccccc2n1,inactive: 17.1%
11,Cc1ccc(CNC(=O)c2cc(S(=O)(=O)N3CCCC(C)C3)cn2C)cc1 (stereo unspecified),inactive: -0.524%
12,Cc1sc(C2C(C#N)=C(N)N(c3cccc(Cl)c3)C3=C2C(=O)CCC3)cc1CN1CCOCC1 (stereo unspecified),inactive: -2.88%
13,Cc1ccc(-c2nn(-c3cccc([N+](=O)[O-])c3)c3c2cnc2ccc(F)cc23)cc1,inactive: 2.7%
14,Cc1cccc(Nc2nc(Nc3cccc(C)c3)nc(N3CCOCC3)n2)c1,inactive: -22.7%
15,Cc1cc2c(n1-c1ccc(C(=O)NCC(C)c3ccccc3)cc1)CCCC2 (stereo unspecified),inactive: -5.06%
16,CCOc1ccc(CNC(=O)c2ccc3c(c2)sc2nc(-c4ccc(OC)cc4)cn23)cc1,inactive: 20%
17,COc1cc(OC)c(NC(=O)CSC2=Nc3ccccc3N=C(c3ccc(F)cc3)C2)cc1Cl,inactive: 14.5%
18,CCOC(=O)c1ccccc1NC(=O)Cc1c(C(=O)O)c(C)cn1C,inactive: -6.78%
19,Cc1cccc(CS(=O)(=O)CC2Nc3ccc(C(=O)NCc4ccccc4)cc3NC2=O)c1 (stereo unspecified),inactive: 3.32%
20,Cc1ccc(-n2ncc(C(=O)N3CCN(c4ccccn4)CC3)c2C2CCN(C(=O)OC(C)(C)C)CC2)cc1C,inactive: -0.656%
21,CCOC(=O)c1ccc(N2C(=O)c3n[nH]c(C)c3C2c2ccc(O)c(OC)c2)cc1 (stereo unspecified),inactive: -10.1%

row,SMILES,"activity change, negative = cytotoxicity"
1,COc1ccc(N2CCN(C(=O)Cn3cnc4sc(C)c(S(=O)(=O)N5CCC(C)CC5)c4c3=O)CC2)cc1,inactive: -4.27%
2,COc1ccc(NC(=O)Cn2cnc3c(nc4n3CCCCC4)c2=O)c(OC)c1,inactive: 0.813%
3,COCCCn1c(=N)c(C(=O)NC2CCCCC2)cc2c(=O)n3ccccc3nc21,inactive: 1.64%
4,COc1ccc(C(=O)Nc2onc3c2CCCC3)cc1,inactive: 6.92%
5,Cc1c(CNC2CCCCCC2)c(C(=O)O)c(C)n1Cc1c(F)cccc1Cl,inactive: 5.29%
6,COc1ccc(-c2cn3nc(N4CCCC(C(=O)Nc5ccc(Cl)cc5C)C4)sc3n2)cc1 (stereo unspecified),inactive: 9.58%
7,CC1Cc2ccccc2N1S(=O)(=O)c1nnc(NC(=O)c2ccccc2Br)s1 (stereo unspecified),inactive: 1.06%
8,CC(C)Oc1ccc(C(=O)Nc2ccc3oc(-c4ccncc4)nc3c2)cc1,inactive: 12%
9,Cc1[nH]c2ccc(F)cc2c1CCNC(=O)c1cc2cc(Cl)ccc2oc1=O,inactive: 6.84%
10,O=c1n(Cc2ccc(F)cc2Cl)c2ccccc2c2nc(-c3ccccc3)nn12,inactive: -0.146%
11,Cn1c(=O)c2c(nc(NCCc3ccccc3)n2Cc2cccc(Br)c2)n(C)c1=O,inactive: -2.12%
12,Cc1ccc(CCNC(=O)c2nnc(Cc3cccc(F)c3)o2)cc1,inactive: -0.301%
13,COc1ccc(Cl)cc1NS(=O)(=O)c1c(C)nc2scc(C)n2c1=O,inactive: 1.88%
14,Cc1ccc(CNC(=O)c2c[nH]c3ccc(S(=O)(=O)Nc4ccc(C(C)C)cc4)cc3c2=O)cc1,inactive: -6.04%
15,COc1cc(NC(=O)C(NC(=O)C2CCC(C)CC2)C(C)C)cc(OC)c1OC (stereo unspecified),inactive: 8.97%
16,COc1cccc(CSc2nc3cc(OC)c(OC)cc3c3nc(CCn4nc(C)cc4C)nn23)c1,inactive: 6.06%
17,CCOc1ccc2nc(N(Cc3cccnc3)C(=O)c3ccc4c(c3)OCCO4)sc2c1,inactive: 17.3%
18,O=C(NC1(C(F)(F)F)NC(=O)N(CCc2ccccc2)C1=O)c1ccccc1F (stereo unspecified),inactive: 7.86%
19,CCN(Cc1ccccc1)C(=O)Nc1ccc2c(c1)N(C)C(=O)c1ccccc1S2,inactive: -28.4%
20,COc1ccc(C)cc1NC(=O)CN1C(=O)CCc2cc(S(=O)(=O)N3CCOCC3)ccc21,inactive: 16.3%
21,Cc1ccc(C(c2sc3nc(-c4ccco4)nn3c2O)N2CCCCC2)cc1 (stereo unspecified),inactive: 3.58%

row,SMILES,"activity change, negative = cytotoxicity"
1,CC(=O)c1ccc(NC(=O)CSc2nc(-c3ccccc3F)nc3c2c(=O)n(C)c(=O)n3C)cc1,inactive: 3.18%
2,C=Cc1ccc(Cn2c(=O)n(-c3ccccc3C)c(=O)c3c4c(sc32)CN(C(C)=O)CC4)cc1,inactive: 0.111%
3,CCc1nn(CC(=O)Nc2c(C)cc(C)cc2C)c(=O)c2cc3sccc3n12,inactive: 2.35%
4,Cc1ccc(N(C)S(=O)(=O)c2ccc3[nH]cc(C(=O)O)c(=O)c3c2)cc1C,inactive: 3.1%
5,Cc1ccc(NC(=O)C2CCN(c3nc4ccccc4[nH]3)CC2)cc1Cl,inactive: -11.6%
6,CC1Cc2cc(S(=O)(=O)NCc3ccc(F)cc3)ccc2N1C(=O)C1CCC1 (stereo unspecified),inactive: -3.03%
7,CCOC(=O)c1c(-c2ccc(C)cc2)csc1NC(=O)c1cc(=O)c2cc(C)c(C)cc2o1,inactive: -1.42%
8,O=C(Cn1cc(SCc2cccc(C(F)(F)F)c2)c2ccccc21)N1CCCCCC1,inactive: -19%
9,COc1cccc2cc(-c3nc(-c4cccs4)no3)c(=O)oc12,inactive: 4.37%
10,CN1C(=O)C2CCCCN2c2ccc(C(=O)NCc3ccccc3Br)cc21 (stereo unspecified),inactive: 6.64%
11,COc1cc(NC(=O)CCc2c(C)nc3c(c(C)nn3-c3ccccc3)c2C)cc(OC)c1OC,inactive: 5.68%
12,COc1ccccc1CNC(=O)Nc1ccc2c(c1)N(C)C(=O)c1ccccc1S2,inactive: -11.1%
13,O=C(CSc1nc2c([nH]c3ccccc32)c(=O)n1-c1ccc(F)cc1)N1CCCCCC1,inactive: 10.4%
14,COc1ccc(Br)cc1CNC(=O)CCC(=O)N1CCSc2ccccc21,inactive: -4.96%
15,Clc1cccc(-c2noc3ncnc(NC4CCCCC4)c23)c1,inactive: -18.7%
16,O=C(Nc1ccc(Br)cc1)c1ccc(Br)c(S(=O)(=O)NCc2ccccc2)c1,inactive: -5.74%
17,CCOc1ccc(CNC(=O)Cn2nc(C)c3sc4ccccc4c3c2=O)cc1,inactive: -4.69%
18,CCOC(=O)c1c(C)c(C(=O)NCCc2ccc(OC)cc2)c(C)n1CC,inactive: -0.0754%
19,CC(=O)c1c(C)n(-c2cccc(C)c2)c2ccc(OC(=O)COc3ccccc3)cc12,inactive: -14.1%
